Measured values published in paper PMC10668032.
The other results are listed elsewhere or left out. At the low end of the ranking the order means little.

These sequences were tested against SIX1-Q177R homeodomain (UniProt Q15475) (assay: universal protein binding microarray). Details: Universal all-10-mer PBM (8x60K, AMADID 030236), 300 nM GST-tagged protein, Alexa Fluor 488 anti-GST; buffer, salt, pH and temperature not stated; high values mean tight binding; most listed sequences are background and not binding sites; double strand, one strand shown.
TAAAGGGA gave a binding signal of 0.116 E-score. Sequence CTACAATA has a binding signal of -0.00204 E-score. With CTACTAAC the binding signal was 0.181 E-score. For TCCTACAA, the binding signal was -0.0386 E-score. GATTTAGA showed a binding signal of -0.123 E-score. For TGATGACA, the binding signal was 0.127 E-score. CGAGGCCG gave a binding signal of -0.192 E-score. GCGTTAAC gave a binding signal of 0.0942 E-score. AGGCCGAA showed a binding signal of 0.00559 E-score. Sequence CCAATCAG has a binding signal of -0.205 E-score. In the case of CCTTCACG, the binding signal is reported as -0.0716 E-score. Sequence CATTAGCC has a binding signal of -0.283 E-score. Work on ATTGTGCA yielded a binding signal of 0.0262 E-score. In the case of GACCCGTA, the binding signal is reported as 0.122 E-score. CATTGGTA gave a binding signal of -0.177 E-score. Work on CGGTCTGC yielded a binding signal of -0.194 E-score. For GCACGTGC, the binding signal was 0.125 E-score. For CCTCGTCG, the binding signal was -0.0642 E-score. Work on ATATATTC yielded a binding signal of -0.0643 E-score. ACCTTCAC gave a binding signal of -0.00915 E-score. GGCTTACC gave a binding signal of 0.0049 E-score. ATGGATTC showed a binding signal of -0.0689 E-score. In the case of ATAACCGG, the binding signal is reported as 0.0312 E-score. For CCCGCAAG, the binding signal was 0.0989 E-score. Work on CAGTCAGC yielded a binding signal of -0.256 E-score. Work on ATAATTCG yielded a binding signal of -0.161 E-score. With CAGTATTA the binding signal was -0.0523 E-score. For GACAGGCA, the binding signal was -0.178 E-score. With CGGAGCCA the binding signal was -0.0669 E-score. Work on ACGGCGGA yielded a binding signal of 0.148 E-score. With CGCACTCC the binding signal was 0.0979 E-score. ATTATCGC was tested, and the binding signal was -0.198 E-score. GCAGCGCA gave a binding signal of 0.0768 E-score. CATTTGAC was tested, and the binding signal was 0.0431 E-score. In the case of CCTATTGC, the binding signal is reported as 0.0533 E-score. For CCGCTATC, the binding signal was 0.0721 E-score. For ATCATTAA, the binding signal was -0.0855 E-score. TATGCCAA showed a binding signal of 0.038 E-score. ACGTATTG showed a binding signal of 0.024 E-score. In the case of ACTCGTAC, the binding signal is reported as -0.1 E-score. AATAACTC was tested, and the binding signal was 0.0587 E-score. Work on CCCTCGAC yielded a binding signal of 0.176 E-score. Work on GGTTTCAA yielded a binding signal of 0.0465 E-score. Work on CAGGTAGA yielded a binding signal of -0.0284 E-score. With AACCAGTT the binding signal was 0.0378 E-score. With CCCCGCAG the binding signal was 0.0284 E-score. GCGAATTA gave a binding signal of -0.0392 E-score. In the case of CGATAACA, the binding signal is reported as 0.232 E-score. Sequence AGAGGCGG has a binding signal of -0.00624 E-score. With AGATCTCG the binding signal was -0.263 E-score. Sequence GGCCATAC has a binding signal of -0.0717 E-score. For AGTGGTTA, the binding signal was -0.00454 E-score. With ATTGTACA the binding signal was 0.149 E-score. ATAGAGGC gave a binding signal of -0.11 E-score. Work on CGAGGTTC yielded a binding signal of 0.0186 E-score. Work on ATGGTACC yielded a binding signal of -0.0492 E-score. ACCAGATA was tested, and the binding signal was 0.162 E-score. Sequence CTCGCGTA has a binding signal of -0.024 E-score. Sequence CAGGTGTC has a binding signal of 0.474 E-score. AACAGAGG gave a binding signal of 0.0622 E-score. GCACACGC showed a binding signal of 0.256 E-score. With ACACGCGC the binding signal was 0.363 E-score. AAACCTAG showed a binding signal of -0.0481 E-score. GAGCACCA showed a binding signal of 0.243 E-score. CGGAGCCG gave a binding signal of 0.0276 E-score. TAATTCAA showed a binding signal of -0.0194 E-score. CTCAACCA showed a binding signal of -0.141 E-score. In the case of CGCGTGAC, the binding signal is reported as 0.147 E-score. Sequence CCAGTCCC has a binding signal of -0.283 E-score. With AATGATTA the binding signal was -0.0319 E-score. For CATACTTA, the binding signal was 0.0765 E-score. Work on AGCTGGGA yielded a binding signal of -0.0931 E-score. For ACTTACTA, the binding signal was -0.0797 E-score. ACCCTACC showed a binding signal of 0.193 E-score. Sequence AACTATGG has a binding signal of -0.0477 E-score. Work on ATCCGGCA yielded a binding signal of 0.0441 E-score. With CTAACCTA the binding signal was -0.0886 E-score. Sequence GCTTTCAA has a binding signal of -0.0959 E-score. In the case of CTTCTATC, the binding signal is reported as -0.111 E-score. Work on CGAGCGAC yielded a binding signal of 0.0996 E-score. Work on ATCTACGG yielded a binding signal of 0.0244 E-score. For CCAACGCG, the binding signal was 0.0963 E-score. With AAGCACAA the binding signal was -0.108 E-score. With CTCGACAG the binding signal was -0.176 E-score. For AATCCATC, the binding signal was -0.0722 E-score. AACGCCCA showed a binding signal of 0.0256 E-score. CATTTAGG gave a binding signal of -0.11 E-score. With TATACAAA the binding signal was 0.0208 E-score. Sequence CCGTTACC has a binding signal of 0.0603 E-score. Work on CGTTTCGC yielded a binding signal of -0.232 E-score. Work on ACCACTTG yielded a binding signal of -0.00111 E-score. Sequence AGTCCCCG has a binding signal of 0.064 E-score. GCGTTCGA was tested, and the binding signal was -0.0181 E-score. CATACTAG showed a binding signal of -0.00656 E-score. Sequence GCTATTCC has a binding signal of -0.208 E-score. Sequence AGGATAAC has a binding signal of 0.063 E-score. CAGACCTC showed a binding signal of -0.22 E-score. Sequence AGGTGACG has a binding signal of 0.0165 E-score. ATTACGTC showed a binding signal of 0.0387 E-score. AAAAGATC gave a binding signal of -0.231 E-score. GACCGACC was tested, and the binding signal was -0.0749 E-score. Sequence ATGACCCA has a binding signal of -0.00857 E-score. Sequence ACCCTAAC has a binding signal of 0.154 E-score. GTGATCGA showed a binding signal of 0.146 E-score. CCGATCGA gave a binding signal of 0.0502 E-score. Work on ACAAGATA yielded a binding signal of 0.0746 E-score. For AAATCGTG, the binding signal was 0.0365 E-score. CGTTTTAC showed a binding signal of 0.0259 E-score. TGTACGAA was tested, and the binding signal was 0.157 E-score. Sequence AGGCAATA has a binding signal of -0.192 E-score. AACCTGCC was tested, and the binding signal was 0.146 E-score. Work on ATGGCCGA yielded a binding signal of 0.155 E-score. Sequence AAACTACG has a binding signal of -0.0588 E-score. For CCCACTCG, the binding signal was 0.0636 E-score. Sequence ACGCTGAT has a binding signal of 0.193 E-score. With GTAGCTAA the binding signal was -0.106 E-score. Sequence GTAGGCAA has a binding signal of -0.225 E-score. For CTGCTGAA, the binding signal was -0.0686 E-score. Work on AGGTGCAC yielded a binding signal of 0.264 E-score. ATATGCCG was tested, and the binding signal was -0.0524 E-score. AGGCGACC was tested, and the binding signal was 0.00768 E-score. Work on GGTAGGGA yielded a binding signal of -0.0239 E-score. ACCAAACA gave a binding signal of 0.244 E-score. Sequence AGCACTCG has a binding signal of 0.00476 E-score. With AGTACCAC the binding signal was 0.00205 E-score. Sequence GGCACGAA has a binding signal of 0.00376 E-score. GTACCGCA showed a binding signal of 0.128 E-score. AGCTGCAT was tested, and the binding signal was -0.383 E-score. GAGAAGAA was tested, and the binding signal was -0.199 E-score. In the case of GATATCAA, the binding signal is reported as -0.174 E-score. With AAAACCCG the binding signal was 0.102 E-score. For CACCAATC, the binding signal was 0.287 E-score. With GGACTATA the binding signal was -0.163 E-score. Sequence AATAGCTG has a binding signal of -0.186 E-score. Sequence CATGACCA has a binding signal of -0.0632 E-score. ACTCGCTG was tested, and the binding signal was -0.067 E-score. Work on CGAAATAC yielded a binding signal of -0.0216 E-score. For AGGGAGAA, the binding signal was -0.173 E-score. In the case of AGTCGCGG, the binding signal is reported as -0.004 E-score. AGTACATA was tested, and the binding signal was 0.0251 E-score. AAAGCTCA was tested, and the binding signal was -0.25 E-score. ACGGGACC showed a binding signal of -0.0478 E-score. For CAGGGTAC, the binding signal was 0.162 E-score. Sequence GGTAATCA has a binding signal of -0.0284 E-score. Work on AGCCTCAC yielded a binding signal of -0.082 E-score. For ATAAGCGA, the binding signal was -0.0276 E-score. GAACCCCA showed a binding signal of 0.187 E-score. ACCATAGA was tested, and the binding signal was 0.04 E-score. GCCGTGTA showed a binding signal of 0.419 E-score. Work on CGAGCAAC yielded a binding signal of -0.0501 E-score. Work on CTGGTGCC yielded a binding signal of 0.122 E-score. Sequence TGAAGTAA has a binding signal of -0.127 E-score. AATTCTTA showed a binding signal of -0.119 E-score. CCGGGCTA showed a binding signal of 0.116 E-score. AACGCGCT showed a binding signal of -0.125 E-score. Sequence ACGCATAA has a binding signal of 0.0551 E-score. CAACGTGG gave a binding signal of -0.119 E-score. Work on TGTCGACA yielded a binding signal of 0.25 E-score. With ACATAAGG the binding signal was -0.0204 E-score. CCTGACAG was tested, and the binding signal was -0.0476 E-score. With CCTTGCGC the binding signal was -0.169 E-score. Work on AAAATGCG yielded a binding signal of -0.102 E-score. GGATCTTA gave a binding signal of -0.0167 E-score. ATAGAGCC showed a binding signal of -0.2 E-score. In the case of AACGGTTA, the binding signal is reported as -0.126 E-score. Work on GAGAGTTA yielded a binding signal of -0.0602 E-score. Sequence TAGTCAGA has a binding signal of -0.27 E-score. For AGATGGCG, the binding signal was -0.155 E-score. Work on ATCGACTA yielded a binding signal of -0.189 E-score. Sequence ATCGGCGC has a binding signal of 0.014 E-score. With CGACCTTA the binding signal was -0.0522 E-score. Sequence GGGACCTA has a binding signal of 0.0105 E-score.
